From PubChem BioAssay AID686978 (National Center for Advancing Translational Sciences (NCATS), 2013)
Screen size: about 420,000 compounds; about 64,000 (15%) were called active. Inconclusive results, whose numbers are uncertain, are shown with a selection of clear calls. The call rests on the fitted dose curve; in most records, active means well fitted inhibition curve with a large enough effect; inconclusive means small, poorly fitted or top-dose-only effect; inactive means flat fitted curve, though single readings scatter. Potencies of inconclusive entries are left out as doubtful fits. More than one record can exist for a structure, and the calls need not agree.

Test: qHTS for Inhibitors of human tyrosyl-DNA phosphodiesterase 1 (TDP1): qHTS in cells in absence of CPT; further: nearly all actives have a fitted effect of over 55% in size
Details: DT40 Tdp1-/- hTDP1 cells, no CPT, ATP luminescence, 48 h; activity change, negative = growth inhibition: at 46.2 µM (top of the series) unless noted
In short: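 Chicken DT40 Tdp1-/- cells stably complemented with human TDP1 were seeded at 400 cells/well with DMSO in place of 20 nM camptothecin. After compound pinning, cells grew at least 48 hr at 37 °C; viability read by CellTiter-Glo luminescence.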
On the % scale 0 is the no-effect control and ±100 the full control effect; potency means the concentration at half of the fitted maximal effect; tags describe the fitted curve by direction and shape.

Question: Which Potency does the source give for CC1=C(C(=O)Nc2ccccc2C)C(c2cccnc2)n2nc(SCc3ccccc3)nc2N1 (stereo not given) here?
Answer: inconclusive [inhibitor, single point]

Question: With Cc1cccc(-n2ncc3c(N(C)C4CCCCC4)ncnc32)c1 as the compound, how does the Potency read?
Answer: inconclusive [inhibitor, single point]

Question: With COc1ccccc1C(=O)Nc1ccc(OCC(=O)N2C(C)CCCC2C)cc1 (stereo not given) as the compound, how does the Potency read?
Answer: inconclusive [inhibitor, single point]

Question: With O=C1CC2C(CCC23OCCO3)c2ccc3ccccc3c21 (stereo not given) as the compound, how does the Potency read?
Answer: inconclusive [inhibitor, full curve, poor fit]

Question: With COC1(OC)C(/C=C/c2ccc(Cl)cc2)C(C#N)(C#N)C1(OC)OC (stereo not given) as the compound, how does the Potency read?
Answer: active: 8.2 µM

Question: Which Potency does the source give for CN(C)S(=O)(=O)c1ccc(N2C(=O)CC2(/C=C/c2ccccc2)C(=O)NC2CCCC2)cc1 (stereo not given) here?
Answer: inconclusive [inhibitor, partial curve]

Question: For Cc1cccc(-n2c(SCc3cc(=O)n4ccsc4n3)nc3ccccc32)c1, which Potency is on record?
Answer: active: 16.4 µM

Question: Which “activity change, negative = growth inhibition” value does the source give for O=C(Nc1ccccc1F)c1ccc2ncsc2c1 here?
Answer: inactive: -23.9%

Question: With COc1cc(C=C2CCC/C(=C\c3ccc(O)c(OC)c3)C2=O)ccc1O as the compound, how does the Potency read?
Answer: active: 7.5 µM

Question: Which Potency does the source give for Cn1c(=O)c2cc(NC(=O)Nc3cccnc3)ccc2n1Cc1cccc(C(F)(F)F)c1 here?
Answer: inconclusive [inhibitor, partial curve]

Question: For O=C(O)/C=C\c1cn(-c2ccccc2)nc1-c1cc2ccccc2o1, which “activity change, negative = growth inhibition” value is on record?
Answer: inactive: -5.85%

Question: With CC(C)=CCN1CCN(Cc2nc(-c3ccccc3)cs2)CC1CCO (stereo not given) as the compound, how does the Potency read?
Answer: inconclusive [inhibitor, single point]

Question: With O=C(CSc1ncccn1)NNC(=O)c1ccccc1 as the compound, how does the “activity change, negative = growth inhibition” value read?
Answer: inactive: 16.6%

Question: For COc1ccccc1NC(=O)C1=C(C)Nc2nc(SCc3ccccc3)nn2C1c1ccccn1 (stereo not given), which Potency is on record?
Answer: inconclusive [inhibitor, partial curve]

Question: For O=C(NNC1=C(C(=O)C(F)(F)F)CCC1)c1ccccc1Cl, which Potency is on record?
Answer: active: 1.03 µM

Question: With CCCCN1C(=O)C(C)=C(C)C1OCCc1ccc(OC)c(OC)c1 (stereo not given) as the compound, how does the Potency read?
Answer: inconclusive [inhibitor, single point]

Question: Which Potency does the source give for Cn1c(=O)c2c(SCc3cccnc3)nc(C3CC3)nc2n(C)c1=O here?
Answer: inconclusive [inhibitor, single point]

Question: Which Potency does the source give for Cc1cc(C(=O)N/N=C/c2ccc([N+](=O)[O-])s2)n[nH]1 here?
Answer: active: 5.17 µM

Question: For O=C(Nc1cccc(S(=O)(=O)N2CCCCCC2)c1)C1CCC1, which Potency is on record?
Answer: inconclusive [inhibitor, single point]

Question: Which Potency does the source give for CCc1nc2ccc(C(=O)NCc3cccs3)cn2c1N(CCC(C)C)CCN(C)C here?
Answer: inconclusive [inhibitor, single point]

Question: Which Potency does the source give for CCOC(=O)C1=CN(Cc2cccc(F)c2)S(=O)(=O)N(CC)C1c1ccc(F)c(Cl)c1 (stereo not given) here?
Answer: inconclusive [inhibitor, single point]

Question: With COc1ccc(CN2CCNC(=O)C2CC(=O)NCC(C)(C)N2CCOCC2)cc1C (stereo not given) as the compound, how does the “activity change, negative = growth inhibition” value read?
Answer: inactive: 2.22%

Question: With CSC1=NC=C(C#N)C2=NC(c3ccc(Cl)cc3)NN12 (stereo not given) as the compound, how does the Potency read?
Answer: inconclusive [inhibitor, single point]

Question: Which Potency does the source give for CCOc1ccc(/C=N/NC(=O)c2cc(-c3ccccc3)nc3ccccc23)cc1O here?
Answer: inconclusive [inhibitor, full curve]

Question: For CCN(CC)c1ccc(/C=C/c2cc(Cl)nc3ccccc23)cc1, which Potency is on record?
Answer: active: 15.8 µM

Question: With CCCN1CCc2c(sc3nc(SCC)n(-c4ccc(OC)cc4)c(=O)c23)C1 as the compound, how does the Potency read?
Answer: active: 13 µM

Question: For CC1CCc2nc(N)c(C#N)c(-c3cccnc3)c2C1 (stereo not given), which “activity change, negative = growth inhibition” value is on record?
Answer: inactive: -8.72%

Question: For O=C(NN=C(Cc1ccccc1)Cc1ccccc1)C1CC1, which “activity change, negative = growth inhibition” value is on record?
Answer: inactive: 1.08%

Question: Which Potency does the source give for COc1cc2[nH]c(C(=O)NCCc3ccccc3)cc2c(OC)c1OC here?
Answer: inconclusive [inhibitor, partial curve, poor fit]

Question: For COc1cc(/C=N/NC(=O)c2ccccc2O)ccc1OC(=O)CC1SC(=O)NC1=O (stereo not given), which Potency is on record?
Answer: inconclusive [inhibitor, single point]

Question: For COc1ccc(C(=O)Nc2ccccc2C(=O)OCc2cc(=O)n3c4c(sc3n2)CCCC4)cc1, which Potency is on record?
Answer: inconclusive [inhibitor, single point]

Question: With O=C(CCC(=O)N1CC2CCCN2c2ccccc21)NCc1ccccc1Cl (stereo not given) as the compound, how does the Potency read?
Answer: active: 16.4 µM

Question: With COc1cc(-c2nc(-c3ccc(Br)o3)no2)cc(OC)c1OC as the compound, how does the Potency read?
Answer: inconclusive [inhibitor, partial curve]

Question: Which Potency does the source give for Cc1nc2c(c(C)c1CCC(=O)Nc1cccc(C(F)(F)F)c1)c(=O)n(C)c(=O)n2C here?
Answer: active: 16.4 µM

Question: With CC(=O)N(Cc1ccc(F)cc1)C1=C(NCc2ccccc2)C(=O)c2ccccc2C1=O as the compound, how does the Potency read?
Answer: active: 1.26 µM

Question: With CC1CCCN(S(=O)(=O)c2cc3c(cc2Cl)NC(=O)CO3)C1 (stereo not given) as the compound, how does the Potency read?
Answer: inconclusive [inhibitor, single point]

Question: Which Potency does the source give for C=CCN1CN(S(=O)(=O)c2cccc(Cl)c2)c2nc3ccccc3nc21 here?
Answer: inconclusive [inhibitor, single point]

Question: Which activity change, negative = growth inhibition does the source give for CC(=O)Nc1ccc(S(=O)(=O)N2CCCN(S(=O)(=O)c3ccc(C)cc3)CC2)cc1 here?
Answer: inconclusive: -36.6% [inhibitor]

Question: For CC1(C)C(=O)N(OCc2ccccc2)C(C)(C)C(=O)N1OCc1ccccc1, which Potency is on record?
Answer: inconclusive [inhibitor, single point]

Question: Which Potency does the source give for O=C(CSc1nc2ccccc2c(=O)n1CC1CCCCC1)N1CCOCC1 here?
Answer: inconclusive [inhibitor, single point]

Question: Which Potency does the source give for CCCCN(C)C(=O)C1CCN(Cc2cccc(OCc3ccccc3)c2)CC1 here?
Answer: inconclusive [inhibitor, single point]

Question: Which Potency does the source give for Cn1ccnc1Sc1ccc(/C=N/NC(=O)c2ccccc2[N+](=O)[O-])cc1[N+](=O)[O-] here?
Answer: inconclusive [inhibitor, single point]

Question: Which Potency does the source give for COc1ccccc1CNc1nc2nc(C)c(Cl)c(C)n2n1 here?
Answer: inconclusive [inhibitor, single point]

Question: For Cc1ccccc1OC(=O)n1c(=S)oc2cc(Cl)ccc21, which Potency is on record?
Answer: inconclusive [inhibitor, single point]

Question: With COC(=O)C[C@H]1c2cc(F)ccc2S(=O)(=O)N1C(C)C as the compound, how does the Potency read?
Answer: inconclusive [inhibitor, single point]

Question: For COc1ccc(C(OCC(O)CNC(C)c2ccccc2)c2ccc(OC)cc2)cc1 (stereo not given), which Potency is on record?
Answer: active: 23.1 µM

Question: With O=C(CN1C(=O)C(c2ccccc2)Oc2cccnc21)NCc1ccccc1F (stereo not given) as the compound, how does the Potency read?
Answer: inconclusive [inhibitor, single point]

Question: For Cc1ccc(C)c(S(=O)(=O)N2CCN(c3ncnc4sccc34)CC2)c1, which Potency is on record?
Answer: active: 3.66 µM

Question: For Cc1cccc(N2CCN(C(=O)c3cccc(N4CCCC4=O)c3)CC2)c1C, which Potency is on record?
Answer: inconclusive [inhibitor, single point]

Question: With O=C(COc1ccccc1C(=O)Nc1ccccc1)Nc1cccc(Br)c1 as the compound, how does the Potency read?
Answer: inconclusive [inhibitor, single point]

Question: With CC1CC(NC(=O)Cc2ccc(Br)cc2)CC(C)(C)C1 (stereo not given) as the compound, how does the Potency read?
Answer: inconclusive [inhibitor, single point]

Question: Which “activity change, negative = growth inhibition” value does the source give for C/C(=N\NC(=O)c1ccc(-n2cnnn2)cc1)c1ccc(C)cc1 here?
Answer: inactive: -5.79%

Question: With COC(=O)c1cccc2c1C(=O)c1cc([N+](=O)[O-])ccc1-2 as the compound, how does the Potency read?
Answer: inconclusive [inhibitor, partial curve]

Question: With COC(=O)c1ccc(Cn2nnc3ccccc3c2=O)o1 as the compound, how does the “activity change, negative = growth inhibition” value read?
Answer: inactive: 0.231%

Question: Which Potency does the source give for COc1ccc(CCNC(=O)CSc2nc3cc(Cl)ccc3o2)cc1OC here?
Answer: inconclusive [inhibitor, single point]

Question: For COc1ccc(C(=O)NC(=O)NC2(C(Cl)(Cl)Cl)OCCO2)cc1, which “activity change, negative = growth inhibition” value is on record?
Answer: inactive: 6.01%

Question: For C[C@]12CC[C@@H]3c4ccc(OC(=O)c5ccccc5)cc4CC[C@H]3[C@@H]1CC[C@@H]2O, which Potency is on record?
Answer: active: 13 µM

Question: With O=C(CSc1nc2ccccc2c(=O)[nH]1)c1ccc(O)cc1O as the compound, how does the Potency read?
Answer: inconclusive [inhibitor, partial curve]

Question: With Cc1cccc(-c2nc(SCC(=O)Nc3cc(C)on3)c3c(=O)n(C)c(=O)n(C)c3n2)c1 as the compound, how does the “activity change, negative = growth inhibition” value read?
Answer: inactive: 2.45%

Question: For Cc1ccc(NC(=O)N2CCC(N3CCN(Cc4ccccc4)C(=O)C3=O)CC2)cc1Cl, which Potency is on record?
Answer: active: 14.6 µM

Question: For COc1ccc(N2CCN(c3ccc(-c4nc(-c5ccccc5C)no4)cc3[N+](=O)[O-])CC2)cc1, which Potency is on record?
Answer: inconclusive [inhibitor, full curve]

Question: For CC1(C(=O)NS(=O)(=O)C2CC2)CCCN(C(=O)/C=C/c2ccccc2)C1 (stereo not given), which Potency is on record?
Answer: active: 14.6 µM

Question: For COc1ccccc1CNC(=O)CN(C)S(=O)(=O)c1ccc2c(c1)c(=O)n(C)c(=O)n2C, which “activity change, negative = growth inhibition” value is on record?
Answer: inactive: 18%

Question: With O=C(Nc1cccc(NC(=O)c2ccco2)c1)c1ccc2c(c1)OCCO2 as the compound, how does the Potency read?
Answer: inconclusive [inhibitor, single point]

Question: For Cc1ccc(NC(=S)Nc2cccnc2)c(S(=O)(=O)N2CCCCC2)c1, which Potency is on record?
Answer: active: 16.4 µM

Question: Which Potency does the source give for CC[C@H](C)[C@H]1CNC(=S)N1CC1CCN(CCC23CC4CC(CC(C4)C2)C3)CC1 here?
Answer: active: 16.4 µM

Question: For CC(=O)Nc1ccc(NCC(=O)c2ccccc2)cc1, which Potency is on record?
Answer: inconclusive [inhibitor, single point]

Question: Which Potency does the source give for CC(O)(c1ccccc1)c1nc(-c2ccncc2)cs1 (stereo not given) here?
Answer: inconclusive [inhibitor, full curve, poor fit]

Question: For c1ccc(Cc2nnc(Sc3ccccc3)c3ccccc23)cc1, which Potency is on record?
Answer: inconclusive [inhibitor, single point]

Question: For O=C(NCC1CCN(Cc2ccc(F)cc2)CC1)C1CCCN(c2ncnc3c2nc2n3CCCCC2)C1 (stereo not given), which Potency is on record?
Answer: inconclusive [inhibitor, single point]
